{"source": "PubChem BioAssay AID624296", "about": "(National Center for Advancing Translational Sciences (NCATS), 2012)", "note": "Screen size: about 350,000 compounds; about 9,900 (2.8%) were called active. The shares of active, inactive and inconclusive entries below differ from those in the screen. The call rests on the fitted dose curve; in most records, active means well fitted activation curve with a large enough effect; inconclusive means small, poorly fitted or top-dose-only effect; inactive means no such curve, though single readings can be large or run the other way. Potencies of inconclusive entries are left out as doubtful fits. Potency means the concentration at half of the fitted maximal effect; tags describe the fitted curve by direction and shape.", "data": [{"experiment": "A quantitative high throughput screen for small molecules that induce DNA re-replication in MCF 10a normal breast cells; further: nearly all actives have a fitted effect of over 50% in size.", "conditions": "MCF 10A DNA re-replication, Hoechst nuclear intensity, 48 h; series mostly up to 46.1 µM", "values": [{"molecule": "COc1ccccc1/C=N/NC(=O)c1cccc(NC(=O)c2ccccc2C)c1", "Potency": "inconclusive [activator, partial curve, poor fit]"}, {"molecule": "Cn1cnc([N+](=O)[O-])c1SCC(O)CN1CCCCC1", "note": "(configuration not stated)", "Potency": "inconclusive [activator, single point]"}, {"molecule": "COc1ccc(C2(C(=O)NC3CCCCC3)CCOCC2)cc1OC", "Potency": "inconclusive [activator, single point]"}, {"molecule": "Cc1ccc2[nH]c3ccccc3c(=O)c2c1", "Potency": "active: 16.4 µM"}, {"molecule": "COc1ccc(CN=C2NN=C(c3cccc(OC)c3)CS2)cc1", "Potency": "inconclusive [activator, single point]"}, {"molecule": "COc1ccc2c(c1OC)C(=O)N1c3ccccc3N=C(c3ccc([N+](=O)[O-])cc3)CC21", "note": "(configuration not stated)", "Potency": "inactive"}, {"molecule": "CCn1c(SCC(=O)Nc2ccccc2C(=O)OC)nnc1-c1ccoc1C", "Potency": "inconclusive [activator, full curve]"}, {"molecule": "CCOc1ccc(/C=C/C(=O)c2ccccc2)cc1", "Potency": "inactive"}, {"molecule": "CC(=O)c1c(C)[nH]c(C(=O)OCC(=O)N(C)C)c1C", "Potency": "inconclusive [activator, single point]"}, {"molecule": "CN(C)S(=O)(=O)c1cccc(CSc2cccc[n+]2[O-])c1", "Potency": "inconclusive [activator, single point]"}, {"molecule": "COC(=O)[C@@H]1C[C@]2(OC(=O)c3ccccc3)C=CC(=O)C[C@@H]2N1C(=O)OCc1ccccc1", "Potency": "active: 16.4 µM"}, {"molecule": "CCCc1ccc(-c2cc(NC(=O)CSc3n[nH]c(N)n3)n(-c3ccccc3)n2)cc1", "Potency": "active: 20.6 µM"}, {"molecule": "Cc1cc(C(=O)COC(=O)c2ccc(O)cc2O)c(C)n1-c1ccccc1", "Potency": "inconclusive [activator, partial curve, poor fit]"}, {"molecule": "O=C1NC[C@H](Cc2ccccc2)N(C[C@H]2CCCN2C[C@H](Cc2ccccc2)N2C[C@H](Cc3ccc(O)cc3)N(CCc3ccccc3)C(=O)C2=O)C1=O", "Potency": "inconclusive [activator, single point]"}, {"molecule": "Cc1cc(=S)c2ccccc2[nH]1", "Potency": "inconclusive [activator, partial curve, poor fit]"}, {"molecule": "Cc1cc(C(=O)O)ccc1-c1ccc(/C=C2\\NC(=O)N(Cc3ccc(F)cc3)C2=O)o1", "Potency": "active: 3.66 µM"}, {"molecule": "CCOc1ccc(C(C(=O)NCC2CCCO2)N(CCc2cccc(C)c2)C(=O)c2snc(C(N)=O)c2N)cc1", "note": "(configuration not stated)", "Potency": "inconclusive [activator, single point]"}, {"molecule": "O=C(NCc1ccccc1Cl)c1ccc2c(c1)SC1=NS(=O)(=O)CCN12", "Potency": "inconclusive [activator, partial curve, poor fit]"}, {"molecule": "COc1ccc(C2=NN(C(=O)C(O)c3ccccc3)C(O)(C(F)(F)F)C2)cc1", "note": "(configuration not stated)", "Potency": "inconclusive [activator, single point]"}, {"molecule": "Cc1ccc(S(=O)(=O)Nc2c(C)n(C)n(-c3ccccc3)c2=O)cc1C(=O)NCc1ccco1", "Potency": "inactive"}, {"molecule": "Cn1c(SCCN2CCCC2)nnc1C1CCN(S(=O)(=O)c2ccc(F)cc2)CC1", "Potency": "inconclusive [activator, full curve, poor fit]"}, {"molecule": "C=C1C(=O)O[C@@H]2[C@H]3O[C@]3(C)CC/C=C(\\C)CC[C@@H]12", "Potency": "active: 4.11 µM"}, {"molecule": "O=C(Cn1c(=O)n(-c2ccccc2)c(=O)c2oc3ccccc3c21)Nc1ccccc1", "Potency": "inconclusive [activator, single point]"}, {"molecule": "CC1=CSC2=NC(=O)/C(=C\\c3cccn3-c3ccc([N+](=O)[O-])cc3)C(=N)N12", "Potency": "inconclusive [activator, single point]"}, {"molecule": "CN(C)S(=O)(=O)c1cccc(NC(=S)N2CCc3ccccc32)c1", "Potency": "inconclusive [activator, single point]"}, {"molecule": "CCOC(=O)C1C(=O)NC(c2ccccc2)=NC1c1ccc(O)c(OC)c1", "note": "(configuration not stated)", "Potency": "inactive"}, {"molecule": "C=C(C)c1nc2cc(OC)c(OC)cc2c(=O)o1", "Potency": "inconclusive [activator, partial curve, poor fit]"}, {"molecule": "CCN(C(=O)COC(=O)CCCOc1ccc(Cl)cc1C)c1c(N)n(Cc2ccccc2)c(=O)[nH]c1=O", "Potency": "inconclusive [activator, single point]"}, {"molecule": "O=c1ccc(N=Nc2ccccc2)ccc1O", "Potency": "inconclusive [activator, partial curve, poor fit]"}, {"molecule": "Cc1ccc(C)c(NC(=O)CN(C)C(=O)[C@@H](NC(=O)c2ccc(C(C)(C)C)cc2)C(C)C)c1", "Potency": "inconclusive [activator, single point]"}, {"molecule": "CCOC(=O)c1cccc(C2=CC(=O)C[C@H](c3ccc(Cl)cc3)C2)c1", "Potency": "inconclusive [activator, single point]"}, {"molecule": "O=C(Nc1ccc(CN2CCCCC2)cc1)Nc1ccc(Br)cc1Cl", "Potency": "active: 16.4 µM"}, {"molecule": "O=S1(=O)C=C(SCCN2CCCCC2)c2ccccc21", "Potency": "inconclusive [activator, partial curve, poor fit]"}, {"molecule": "COc1ccccc1OCC(=O)N/N=C1\\CCc2ccccc21", "Potency": "inactive"}, {"molecule": "Cc1ccc(/C=C/C(O)=C2/C(=O)N(C)C3(C)CC2c2ccccc2O3)cc1", "note": "(configuration not stated)", "Potency": "inconclusive [activator, single point]"}, {"molecule": "CCn1nc(NC(=O)c2ccccn2)c2cc3cccc(C)c3nc21", "Potency": "active: 11.6 µM"}, {"molecule": "Cc1ccc(C2CC(=O)Oc3cc(C)cc(C)c32)cc1", "note": "(configuration not stated)", "Potency": "inconclusive [activator, single point]"}, {"molecule": "COc1cc(OC)cc(-c2nc3ccccc3s2)c1", "Potency": "inconclusive [activator, single point]"}, {"molecule": "Cc1c(NC(=O)COC(=O)c2cc(-c3cccc4ccccc34)nc3ccccc23)c(=O)n(-c2ccccc2)n1C", "Potency": "inconclusive [activator, single point]"}, {"molecule": "O=S(=O)(Cc1ccccc1)Cc1cnc(Cl)s1", "Potency": "inactive"}, {"molecule": "COc1cc(NC(=O)C2CCCO2)c(OC)cc1Cl", "note": "(configuration not stated)", "Potency": "inactive"}, {"molecule": "CC(=O)N1CCC(O)(c2cccc(C(F)(F)F)c2)CC1", "Potency": "inconclusive [activator, full curve, poor fit]"}, {"molecule": "O=c1[nH]sc2ccccc12", "Potency": "inconclusive [activator, full curve, poor fit]"}, {"molecule": "CCCCCOC(=O)Nc1ccc(S(=O)(=O)Nc2cccc([N+](=O)[O-])c2)cc1", "Potency": "inconclusive [activator, single point]"}, {"molecule": "C=CCC(NCc1ccccc1)c1ccc(C)o1", "note": "(configuration not stated)", "Potency": "inactive"}, {"molecule": "CCCN1CCC(N2CCN(c3cccc(C(F)(F)F)c3)CC2)CC1", "Potency": "inconclusive [activator, full curve, poor fit]"}, {"molecule": "COc1cccc(C(=O)NC(=S)Nc2ccc3oc(=O)ccc3c2)c1", "Potency": "inactive"}, {"molecule": "CC(=O)N1CN(C2CC(C)(C)NC(C)(C)C2)Cc2c1sc1c2CCCC1", "Potency": "inconclusive [activator, single point]"}, {"molecule": "COc1ccc(-c2cc(N)n(S(=O)(=O)c3c(F)c(F)c(F)c(F)c3F)n2)cc1OC", "Potency": "inconclusive [activator, single point]"}, {"molecule": "O=C(CSc1nc(C2CC2)nc2c1cnn2-c1ccccc1)Nc1c[nH]c(=O)[nH]c1=O", "Potency": "inconclusive [activator, full curve, poor fit]"}, {"molecule": "CN1CCN(C(=O)c2cc3nc(-c4ccc(F)cc4)cc(C(F)(F)F)n3n2)CC1", "Potency": "inconclusive [activator, single point]"}, {"molecule": "CCC(Cc1ccccc1)NS(=O)(=O)c1c(C)nc2sccn2c1=O", "note": "(configuration not stated)", "Potency": "inactive"}, {"molecule": "COc1ccc(C(=O)CSc2nccn2C)c(OC)c1", "Potency": "inactive"}, {"molecule": "Cc1cccc(Nc2cnn(C34CC5CC(CC(CC(=O)O)(C5)C3)C4)c(=O)c2Cl)c1", "Potency": "inactive"}, {"molecule": "O=C1c2ccccc2NC(c2ccc(-c3cccc(F)c3)o2)N1O", "note": "(configuration not stated)", "Potency": "inconclusive [activator, single point]"}, {"molecule": "Cc1cccc(C(=O)O[C@H]2[C@H](Cc3ccccc3)NS(=O)(=O)[C@H]3CC4C=C[C@]23O4)c1", "Potency": "inconclusive [activator, single point]"}, {"molecule": "COCCn1c(-c2ccccc2)nc2c(c(=O)c3ccccc3n2C)c1=O", "Potency": "inactive"}, {"molecule": "O=C(O)C1CSC(c2coc3ccccc3c2=O)N1", "note": "(configuration not stated)", "Potency": "inconclusive [activator, partial curve, poor fit]"}, {"molecule": "CN1CCN(C(=O)c2ccc(CS(=O)Cc3ccc(Cl)cc3)o2)CC1", "note": "(configuration not stated)", "Potency": "inconclusive [activator, partial curve, poor fit]"}, {"molecule": "COC(=O)c1cc(C(=O)OC)cc(N2C(=O)CC(NNC(=O)c3ccc(C)cc3)C2=O)c1", "note": "(configuration not stated)", "Potency": "inconclusive [activator, single point]"}, {"molecule": "Cc1ccccc1NC(=O)C(=O)NC(C)CCc1ccccc1", "note": "(configuration not stated)", "Potency": "inactive"}, {"molecule": "O=C(OC(C(=O)Nc1ccc(Cl)cc1C(F)(F)F)c1ccccc1)c1c(Cl)cccc1Cl", "note": "(configuration not stated)", "Potency": "active: 5.8 µM"}, {"molecule": "Cc1cc(N2CCN(c3ccc(F)cc3)CC2)nc(-c2ccccc2)n1", "Potency": "inconclusive [activator, single point]"}, {"molecule": "O=C(C1CCN(S(=O)(=O)c2ccccc2F)CC1)N1CCN(Cc2ccc3c(c2)OCO3)CC1", "Potency": "inconclusive [activator, single point]"}, {"molecule": "COc1ccc(O)c(/C=C2/SC(=S)N(Cc3ccccc3)C2=O)c1", "Potency": "active: 13 µM"}, {"molecule": "Cc1cccc(NC(=O)NNC(=O)c2cc3occc3[nH]2)c1C", "Potency": "inactive"}, {"molecule": "CC(C)(C)CN1CCN(CCCc2ccccc2)C(CCO)C1", "note": "(configuration not stated)", "Potency": "inconclusive [activator, single point]"}]}]}
